According to PubChem BioAssay AID463173 (ICCB-Longwood Screening Facility, Harvard Medical School, 2010):
Screen size: about 52,000 compounds; about 1,700 (3.3%) were called active. No stated cut-off is given here; in the data, active means survival mostly below about 52% (no sharp cut-off); inactive means mostly above about 56%. The list shows a part of the results.

The compounds below were run on Wild type (assay: growth inhibition of S. aureus wild type versus tarO mutant, primary screen, teichoic acid synthesis inhibitors, RN4220, OD600 (AID 463173)). Settings: S. aureus RN4220 wild type/DeltatarO growth, OD600, 18 h, hits give low values, screened at 18.75 µg/mL (by protocol).
In the case of CCC(=O)N1c2ccc(S(=O)(=O)N3CCC(C)CC3)cc2CC1C (stereo unspecified), the survival is reported as inactive: 69%.
With CCCCC(CC)CNC(=O)C1CCC(CNS(=O)(=O)c2cccc3nsnc23)CC1 (stereo unspecified) the survival was inactive: 86%.
In the case of Cc1cc(C)cc(OCCCn2c(CCNC(=O)C3CCCCC3)nc3ccccc32)c1, the survival is reported as active: 27%.
For O=C(CC1C(=O)OCCN1Cc1ccccc1)Nc1ccc(F)cc1 (stereo unspecified), the survival was inactive: 139%.
Cc1ccc(C)c(NC(=O)Cn2cc(C(=O)c3ccc(Cl)cc3)c(=O)c3ccc(C)nc32)c1 was tested, and the survival was inactive: 83%.
Cc1cc(C)cc(N2CC34C=CC(O3)C(C(=O)OCC(=O)NC3CCCC3)C4C2=O)c1 (stereo unspecified) was tested, and the survival was inactive: 108%.
With Cc1cccc(C)c1-n1ncc(C(=O)N2CCN(c3ccccn3)CC2)c1C1CCN(C(=O)OC(C)(C)C)CC1 the survival was inactive: 55%.
With N#Cc1ccc(CSc2nc3c(c(=O)[nH]2)CCC3)cc1 the survival was inactive: 94%.
For COc1cc(NC(=O)CSc2nc(-c3ccc(C)cc3)nc3c2Cc2ccccc2O3)cc(OC)c1, the survival was inactive: 98%.
Cc1ccccc1Cn1cnc2ccccc21 was tested, and the survival was inactive: 116%.
With CC1CCN(S(=O)(=O)c2ccc(C(=O)Nc3sc4c(c3C(N)=O)CC(C)(C)NC4(C)C)cc2)CC1 the survival was inactive: 83%.
For CC(C)(C)OC(=O)N1C(C(=O)O)CSC1c1cccc(Br)c1 (stereo unspecified), the survival was inactive: 104%.
With Cc1cccc(-c2nc3c4ccccc4nc(NCc4ccc(Cl)cc4)n3n2)c1 the survival was inactive: 47%.
For CC(=O)c1ccc(NC(=O)CSc2cn(CC(=O)N3CCCCCC3)c3ccccc23)cc1, the survival was inactive: 108%.
CCc1ccc2oc(-c3cc(NC(=O)C(C)C)cc(C)c3O)nc2c1 was tested, and the survival was inactive: 73%.
In the case of COc1ccc(-c2cc(C(=O)NCc3ccc(F)cc3)c3c(-c4ccc(F)cc4)[nH]nc3n2)cc1OC, the survival is reported as inactive: 71%.
COc1ccc(NC(=O)CSc2oc(-c3ccco3)nc2S(=O)(=O)c2ccc(Br)cc2)c(OC)c1 was tested, and the survival was inactive: 84%.
With CC(C)Cn1c(=O)c2sccc2n2c(CCCC(=O)NCc3ccccc3Cl)nnc12 the survival was inactive: 87%.
In the case of C(=N\N1CCN(c2ccccn2)CC1)/c1ccco1, the survival is reported as inactive: 93%.
In the case of C=C(C)C1CC=C(C)/C(=N/NC(=O)c2ccncc2)C1 (stereo unspecified), the survival is reported as inactive: 110%.
COc1cccc(CNC(=O)C2CCN(S(=O)(=O)c3cn(C)cn3)CC2)c1 was tested, and the survival was inactive: 68%.
With CC(=O)N1c2ccc(S(=O)(=O)N3CCCCCC3)cc2CC1C(=O)NCc1ccc(Cl)cc1 (stereo unspecified) the survival was inactive: 71%.
For CCOC(=O)N1CCC(NC(=O)c2cnn(-c3cccc(Cl)c3C)c2C2CCN(C(=O)OC(C)(C)C)CC2)CC1, the survival was active: -3%.
In the case of O=C(Cn1cc(SCc2ccc(C(F)(F)F)cc2)c2ccccc21)N1CCCC1, the survival is reported as inactive: 70%.
CCCOc1ccc(-c2nonc2NC(=O)c2oc3ccc(C)cc3c2C)cc1OCCC was tested, and the survival was inactive: 89%.
O=C(Nc1ccccc1Cl)c1cccs1 was tested, and the survival was inactive: 100%.
For COc1cccc(CN2CCc3nc(N4CCN(c5ncccn5)CC4)ncc3C2)c1, the survival was inactive: 72%.
For COc1ccc(CCNc2nc(C)nc3c2nnn3Cc2ccccc2)cc1OC, the survival was inactive: 114%.
In the case of CCc1sc(Nc2cccc(Cl)c2C)nc1-c1cc2cccc(OC)c2oc1=O, the survival is reported as inactive: 73%.
In the case of CN1CCN(c2nc3c(S(=O)(=O)c4ccc(Br)cc4)nnn3c3ccsc23)CC1, the survival is reported as inactive: 83%.
For Oc1ccc(Cl)cc1C1=Nc2ccccc2N=C(c2cccc(Br)c2)C1, the survival was inactive: 137%.
In the case of COc1ccc(OC)c(NC(=O)c2cc(CN3CCCC3)on2)c1, the survival is reported as inactive: 73%.
For O=C(CC1C(=O)OCCN1Cc1ccccc1)Nc1cccc(C(F)(F)F)c1 (stereo unspecified), the survival was inactive: 81%.
In the case of CC(=O)NC(C)C1COc2ccccc2O1 (stereo unspecified), the survival is reported as inactive: 107%.
In the case of CCOC(=O)N1CCN(c2cc3cc(OC)ccc3oc2=O)CC1, the survival is reported as inactive: 112%.
For O=C(C1CCC(Cn2c(=O)c3sccc3n(Cc3cccc(F)c3)c2=O)CC1)N1CCCCC1 (stereo unspecified), the survival was inactive: 101%.
COc1ccc(NC(=O)c2c(C)oc3ccc(O)c(CN4CCC(C)CC4)c23)cc1 was tested, and the survival was inactive: 92%.
In the case of COc1ccccc1Nc1nn2c(=O)c3ccc(C(=O)NCc4ccc(F)cc4)cc3nc2s1, the survival is reported as inactive: 71%.
For O=C(NCCc1ccccc1)C(=O)NCC(c1cccnc1)N1CCN(c2ccccc2F)CC1 (stereo unspecified), the survival was inactive: 86%.
In the case of CN(C)c1ccc(C(=O)NC2CCSC2=O)cc1 (stereo unspecified), the survival is reported as inactive: 110%.
For Cc1ccc(CNC(=O)C(=O)NCC(c2ccco2)S(=O)(=O)c2cccs2)cc1 (stereo unspecified), the survival was inactive: 75%.
For CCN1CCN(C(c2ccc(F)cc2)c2c(O)cc(C)n(CCOC)c2=O)CC1 (stereo unspecified), the survival was inactive: 71%.
In the case of COc1ccc(CCNC(=O)c2ccc(CS(=O)(=O)Cc3cccc(C)c3)o2)cc1OC, the survival is reported as inactive: 77%.
CC(C)CCNC(=O)C1CCN(C(=O)N2CCOc3ccc(Cl)cc32)CC1 was tested, and the survival was inactive: 82%.
Cc1nonc1OCCn1nnc(N)n1 was tested, and the survival was inactive: 108%.
With COc1ccc(C(=O)Nc2ccc(-c3cc4ccccc4oc3=O)c(C)c2)cc1OC the survival was inactive: 78%.
CC(C)CNC(=O)C1CCCN1C(=O)Nc1ccccc1 (stereo unspecified) was tested, and the survival was inactive: 106%.
CCc1cccc2c(-c3ccc(F)cc3)nc(SCC(=O)Nc3ccccc3)nc12 was tested, and the survival was inactive: 97%.
For CC1(C)CC(NC(=O)Cc2ccc(Cl)cc2)CC(C)(C)N1, the survival was inactive: 111%.
Cc1cc(=O)oc2ccccc12 was tested, and the survival was inactive: 113%.
With CSc1cccc(NC(=O)N2CCN(c3cc(-c4noc(C)n4)ccc3C)CC2)c1 the survival was inactive: 74%.
For CC(C)NC(=O)C(N)Cc1c[nH]c2ccccc12 (stereo unspecified), the survival was inactive: 116%.
COc1ccc(-c2n[nH]c3c2C(c2ccc(O)cc2)N(c2ccc(Br)cc2)C3=O)cc1 (stereo unspecified) was tested, and the survival was active: 11%.
CCN1CCN(c2ncnc3c2cnn3-c2ccc(C)cc2)CC1 was tested, and the survival was inactive: 75%.
With C=C(C)CSc1nc2sc3c(c2c(=O)n1-c1ccccc1)CCC(C)C3 (stereo unspecified) the survival was inactive: 67%.
For CCOC(=O)c1c(C)[nH]c(C)c1S(=O)(=O)N1CCCC(C(=O)Nc2ccc(F)cc2F)C1 (stereo unspecified), the survival was inactive: 63%.
For O=C(NC1CCCCCC1)c1ccc2c(c1)sc1nc(-c3ccccc3)cn12, the survival was inactive: 68%.
COc1cc(C2CC(=O)N(c3ccccc3)C3=C2C(=O)OC3)cc(OC)c1OC (stereo unspecified) was tested, and the survival was inactive: 69%.
With CCOc1ccc(NC(=O)CSc2cn(CC(=O)N3CCCCCC3)c3ccccc23)cc1 the survival was inactive: 96%.
In the case of COc1ccc(CNC(=O)CC(c2ccc(OC)c(OC)c2)N2Cc3ccccc3C2=O)cc1 (stereo unspecified), the survival is reported as inactive: 79%.
For CCOc1ccc(NC(=O)CSC2=Nc3ccccc3C3=NC(CC(=O)NCc4ccco4)C(=O)N23)cc1 (stereo unspecified), the survival was inactive: 68%.
Cn1c(CNc2cccc(Cl)c2)nnc1SCC(=O)OC1CCCCC1 was tested, and the survival was inactive: 111%.
For Cc1cc2ccccc2n1CCNC(=O)c1cccc(Cl)c1, the survival was inactive: 76%.
For COc1ccccc1CNc1ccc(-c2nc(-c3ccncc3)no2)cc1[N+](=O)[O-], the survival was inactive: 83%.
In the case of COc1ccc(/C=N/N=C2/NC(=O)/C(=C(/C)c3nonc3C)S2)cc1OC, the survival is reported as inactive: 102%.
OCC(O)CN1CCc2ccccc21 (stereo unspecified) was tested, and the survival was inactive: 105%.
For CC(C)c1ccc(NC(=O)c2cc(S(=O)(=O)NCc3ccccc3Cl)ccc2F)cc1, the survival was inactive: 101%.
COc1ccc(C)cc1NC(=O)Cn1c(=O)ccc2cc(S(=O)(=O)N3CCCC3)ccc21 was tested, and the survival was inactive: 68%.
Cc1ccc(N(CC(=O)Nc2ccc(C)c(F)c2)S(=O)(=O)c2c(C)n[nH]c2C)cc1 was tested, and the survival was inactive: 82%.
With CCCn1c(C(=O)OCC)cc2sccc21 the survival was inactive: 86%.
For N#Cc1c[nH]n2c(NC3CCCC3)c(-c3cccc(Cl)c3)nc12, the survival was inactive: 66%.
For CCOc1cc(C(=O)N2CCc3c([nH]c4ccccc34)C2c2ccccc2)cc(OCC)c1OCC (stereo unspecified), the survival was inactive: 77%.
For O=c1onc(-c2ccc(Cl)cc2)n1Cc1ccc(F)cc1, the survival was inactive: 109%.
With CCOC(=O)c1sc2ncn(CC(=O)Nc3ccc(C)cc3Br)c(=O)c2c1C the survival was inactive: 84%.
With O=C(CCCN1C(=O)c2ccccc2C1=O)N1CCCCC1 the survival was inactive: 109%.
COc1ccccc1-n1c(/C=C/c2c(C)n(C)c3ccccc23)nc2ccccc2c1=O was tested, and the survival was inactive: 108%.
With CCOc1ccc(OCC(=O)Nc2nnc3n2CCS3)cc1 the survival was inactive: 76%.
CCc1ccc(Sc2cc(C(=O)NC(C)CC)c3ccccc3n2)cc1 (stereo unspecified) was tested, and the survival was inactive: 65%.
In the case of COc1ccc(-c2noc(CSc3nnc(-c4ccncc4)n3-c3ccc(C)cc3)n2)cc1, the survival is reported as inactive: 84%.
In the case of CCOc1ccc(Sc2cc(C(=O)NCCc3ccccc3)c3ccccc3n2)cc1, the survival is reported as inactive: 72%.
CN(Cc1ccccc1)C(=O)c1ccco1 was tested, and the survival was inactive: 110%.
With COc1cccc(CNC(=O)C2CCC(CNS(=O)(=O)c3ccc(Br)s3)CC2)c1 (stereo unspecified) the survival was inactive: 83%.
With CCOC(=O)C(Cc1c[nH]c2ccccc12)NC(=O)COc1ccc(Cl)c(C)c1 (stereo unspecified) the survival was active: 8%.
For CCOc1nc(NC(=O)NS(=O)(=O)Oc2ccccc2)nc(-c2ccccc2)n1, the survival was inactive: 74%.
For O=S(=O)(c1ccc2c(c1)CCN2)N1CCCCCC1, the survival was inactive: 75%.
For Cc1ccc2c(c1)c1c(c(=O)n(Cc3ccccc3)c(=O)n1CC(=O)NCc1ccccc1Cl)n2C, the survival was inactive: 73%.
In the case of CN(C(=O)CN1C(=O)CCSc2ccc(S(=O)(=O)N3CCCC3)cc21)c1ccccc1, the survival is reported as inactive: 71%.
CCc1ccc(NCc2cc3cc(OC)c(OC)cc3n(CC(=O)Nc3cc(C)ccc3C)c2=O)cc1 was tested, and the survival was inactive: 63%.
For COc1ccc(S(=O)(=O)N(CC(=O)NCc2ccccc2)c2ccc(C)cc2)cc1OC, the survival was inactive: 87%.
CCC(C)OC(=O)/C(C#N)=C\c1ccc(-c2cccc(C(F)(F)F)c2)o1 (stereo unspecified) was tested, and the survival was inactive: 78%.
Cc1cccc(C)c1Nc1nc2ccccc2nc1NS(=O)(=O)c1ccccc1 was tested, and the survival was inactive: 84%.
